Data: PubChem BioAssay AID1479 (National Center for Advancing Translational Sciences (NCATS), 2009)
Hit rate of the full screen: of about 280,000 compounds, about 820 (0.29%) were called active. Inconclusive means that the source gave no clear call. Such entries were picked first, then a sample of the others. The call rests on the fitted dose curve; in most records, active means well fitted curve in either direction with a large enough effect; inconclusive means small, poorly fitted or top-dose-only effect; inactive means flat fitted curve, though single readings scatter. No potency is given beside an inconclusive call; the fits are too rough.

test: Total Fluorescence Counterscreen for Inhibitors of the Interaction of Thyroid Hormone Receptor and Steroid Receptor Coregulator 2; conditions: TRb/SRC2 Texas Red total fluorescence interference; series mostly up to 106 µM; fluorescence change, negative = quenching: at the top concentration
Method in brief: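 Flags fluorescent or light-absorbing compounds by total fluorescence, S + 2P, at 555 nm excitation and 632 nm emission. Mixture: 20 nM Texas Red SRC2 peptide, 0.6 uM human TRb LBD, 1 uM T3, 5% DMSO; compound exposure 5 h at ambient temperature.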
On the % scale 0 is the no-effect control and ±100 the full control effect; potency means the concentration at half of the fitted maximal effect; tags describe the fitted curve by direction and shape or compound fluorescence and quenching.

Structure (SMILES)	Potency	fluorescence change, negative = quenching
CC(C)OC(=O)CC(=O)c1sc2nc3c(cc2c1N)CN(C)CC3	inconclusive [quencher, partial curve]	
CCOc1ccc(NC(=O)Cn2c(=O)n(CCc3ccccc3)c(=O)c3c4c(sc32)CCCC4)cc1	inconclusive [falling, partial curve, poor fit]	
COc1ccc2ccc3c(c2c1)N=CC1(O3)N(C)c2ccccc2C1(C)C (stereo not given)	inconclusive [quencher, full curve]	
CC[C@H](C)[C@H](NC(=O)[C@@H]1CCCN1C(=O)[C@H](C)NC(=O)[C@H](CC(N)=O)NC(=O)[C@@H]1CCCN1C(=O)[C@@H]1CCCN1C(=O)[C@H](CCCN=C(N)N)NC(=O)[C@H](Cc1ccc(O)cc1)NC(=O)[C@H](C)NC(=O)[C@@H]1CCCN1C(=O)[C@@H]1CCCN1C(=O)[C@@H](N)[C@@H](C)O)C(=O)N[C@@H](CC(C)C)C(=O)O	inconclusive [quencher, full curve]	
Cc1ccc(CSc2c(C)cnc3c2c(=O)n(C)c(=O)n3C)cc1		inactive: 2%
CCCCN(C(=O)c1cccc(S(=O)(=O)N2CCCCC2)c1)C1CCS(=O)(=O)C1 (stereo not given)	inconclusive [falling, partial curve, poor fit]	
CCOC(=O)c1cccc(NC(=O)NCCc2c(C)nn(C)c2C)c1		inactive: -0.119%
CN(C(=O)COC(=O)c1ccc2c(=O)n3c(nc2c1)CCC3)c1ccccc1	inconclusive [rising, single point]	
COc1ccc(CNC(=O)COC(=O)c2cc(-c3ccco3)nc3ccccc23)cc1	inconclusive [quencher, partial curve]	
COc1cccc(C2=Nn3c(nnc3-c3ccccc3C)SC2)c1		inactive: -3.43%
Cc1cccc(CCNC(=O)CCS(=O)(=O)c2cc3c(cc2Cl)NC(=O)CO3)c1	inconclusive [falling, partial curve, poor fit]	
COc1cccc(CNC(=O)C2CCN(S(=O)(=O)c3ccc4c(ccn4C)c3)CC2)c1	inconclusive [falling, partial curve, poor fit]	
Cc1ccc(CNC(=O)CSc2ncc(S(=O)(=O)c3ccc(Br)cc3)c(=O)[nH]2)cc1	active: 0.398 µM [quencher]	
CCCCN(C(C)=O)C1CC(=O)N(c2ccc(OCCC)cc2)C1=O (stereo not given)	inconclusive [rising, single point]	
CN(C)C(=O)n1nnnc1Cc1ccc(-c2ccccc2)cc1		inactive: -1.27%
O=c1cc(-c2ccc(O)cc2)oc2c(O)c(O)c(O)c(O)c12		inactive: -4.98%
CC(C)CC1NC(=O)N(CC(=O)N2c3ccccc3NC(=O)C2(C)C)C1=O (stereo not given)		inactive: -1.32%
O=C(c1cc([N+](=O)[O-])ccc1N1CCN(S(=O)(=O)c2ccc(Cl)c(Cl)c2)CC1)N1CCOCC1	inconclusive	
C=C[C@@]1(C)CC(=O)[C@@]2(O)[C@@]3(C)[C@@H](O)CCC(C)(C)[C@@H]3[C@H](OC(=O)CCN(C)C)[C@H](OC(C)=O)[C@@]2(C)O1		inactive: -1.33%
CCOC(=O)c1c(NC(=O)COc2cc(C)ccc2C(C)C)sc2c1CCCC2	inconclusive [falling, full curve, poor fit]	
CCc1ccc(C2=C(C)C(N3CCC(C(=O)Nc4cccc(OC)c4)CC3)=NS2(=O)=O)cc1	inconclusive [falling, partial curve, poor fit]	
Cc1ccc(-c2nn(-c3ccccc3)cc2C=O)o1	inconclusive [falling, partial curve, poor fit]	

Structure (SMILES)	Potency	fluorescence change, negative = quenching
CCOc1ccc(NC(=O)N2CCC(CN3CCCCCC3)CC2)cc1	active: 126 µM [quencher]	
Nc1ccc(N)c(C(=O)O)c1	inconclusive [falling, single point]	
O=C1C(NS(=O)(=O)c2cccs2)=C(N2CCN(Cc3ccccc3)CC2)C(=O)c2ccccc21		inactive: -4.93%
O=C(NCc1ccc(F)cc1)c1c2c(nc3ccccc13)C(=O)N(C1CCCCC1)C2	inconclusive [falling, full curve, poor fit]	
CN1CCc2c(sc3c2C(=O)NC(c2ccccn2)N3)C1 (stereo not given)	active: 44.7 µM [fluorescent]	
CCOC(=O)CN1C(=O)N[C@@H](c2cccc(C(F)(F)F)c2)[C@H](C(=O)OC)[C@H]1C		inactive: -2.67% [at 11.2 µM]
COc1ccc(NC(=O)CSc2nc(-c3cccs3)cc(C(F)(F)F)n2)c(OC)c1	inconclusive [quencher, full curve]	
O=C(CCSCc1cccc(Cl)c1)NC1CCCC1	inconclusive [quencher, full curve]	
Cc1noc(/C=C/c2ccccc2F)c1S(=O)(=O)N1CCC(C(=O)NCc2ccco2)CC1	inconclusive [falling, full curve, poor fit]	
Cc1cccc(C)c1NC(=O)CSCC(=O)O		inactive: -0.389%
COc1ccc(CCNC(=O)CCc2c(C)nc3cc(-c4ccc(Cl)cc4)nn3c2C)c(OC)c1	inconclusive [falling, full curve, poor fit]	
C=C1c2cccc(O)c2C(O)=C2C(=O)[C@]3(O)C(O)=C(C(N)=O)C(=O)[C@@H](N(C)C)[C@@H]3[C@@H](O)[C@H]12	active: 31.6 µM [quencher]	
COc1ccc(NC(=O)c2sc3nc4n(c(=O)c3c2C)CCC4)c(OC)c1	inconclusive [falling, full curve, poor fit]	
O=C(O)c1cc2cc(Cc3cccnc3)ccc2o1	inactive	
O=[N+]([O-])c1ccc(Sc2cccc[n+]2[O-])c2nonc12		inactive: -27%
CC(=O)NC(C)C(c1cccs1)N1CCN(c2ccccc2)CC1 (stereo not given)		inactive: -1.39%
Cc1cccc(C)c1NC(=O)Cn1c(=O)n(Cc2ccc(C(=O)NCc3ccco3)cc2)c(=O)c2sccc21	inconclusive [falling, full curve, poor fit]	
COc1ccccc1OCC(=O)OC/C(O)=C(\C#N)c1nc2ccccc2[nH]1	active: 2.51 µM [quencher]	
CCc1ccc(CNc2ncc(-c3cccc(OC)c3)n2C)cc1	inconclusive [falling, full curve, poor fit]	
CCc1nnc(SCc2nc(-c3ccccc3Cl)oc2C)c2cc3sc(C)cc3n12		inactive: -0.945%
CN(C)c1ccc(CN(Cc2ccco2)C(=O)COc2ccc(F)cc2)cc1	inconclusive [falling, partial curve, poor fit]	
COc1ccc2nc(N3CCCCC3)c(/C=C3\SC(=S)NC3=O)cc2c1		inactive: -0.183%

Structure (SMILES)	Potency	fluorescence change, negative = quenching
Cc1ccc(-c2nc3n(n2)C(c2ccccc2Cl)C=C(c2ccc(Cl)cc2)N3)cc1 (stereo not given)	inconclusive [falling, full curve, poor fit]	
CCOc1ccccc1Nc1ccnc2cc(Cl)ccc12	inconclusive [rising, single point]	
c1ccc(-n2nnnc2CN2CCOCC2)cc1	active: 1580 µM [quencher]	
CN(C)CCSc1nc(-c2ccccc2)nc2c1CCC2	inconclusive [quencher, full curve]	
CC1CCN=C(N)S1 (stereo not given)	inconclusive [falling, partial curve, poor fit]	
CCOc1ccc(C(=O)OCCN(CC)CC)cc1	inactive	
CC(=O)N(Cc1ccco1)c1nc(C(=O)Nc2ccc(Cl)cc2)c(C)s1	inconclusive [falling, full curve, poor fit]	
NS(=O)(=O)c1ccc(NC(=O)COC(=O)CCC2CCCCC2)cc1	inconclusive [quencher, full curve]	
Nc1nnnn1/N=C\c1ccc(Cl)c([N+](=O)[O-])c1		inactive: -3.95%
O=C(CCCCn1c(=O)c2ccccc2n(Cc2cccc(F)c2)c1=O)NCCc1ccccc1	inconclusive [falling, full curve, poor fit]	
N#CC1=C(N)C(C#N)(C#N)[C@H](c2ccncc2)[C@H]2CN(C(=O)OCc3ccccc3)CC=C12		inactive: -2.54%
CN1/C(=C/C=C(C#N)C#N)C=Cc2ccccc21	inconclusive [rising, single point]	
COc1ccc(CC(C)NS(=O)(=O)c2ccc3c(c2)CCN3S(C)(=O)=O)cc1OC (stereo not given)	active: 7.08 µM [quencher]	
O=C(/C=C/c1ccccc1)c1cc(Br)ccc(=O)c1O	inconclusive [quencher, partial curve]	
CCn1c(C(=O)NCCc2ccc(S(N)(=O)=O)cc2)cc2sc(Cl)cc21	inconclusive [quencher, full curve]	
CCOc1ccc(-c2nnc3ccc(SCC(=O)Nc4nc5ccc(C)cc5s4)nn23)cc1	inconclusive [quencher, partial curve]	
CCOc1ccc(CCn2c3c(c(=O)[nH]c2=O)C(NC(=O)c2cccc(F)c2)(C(F)(F)F)C(=O)N3)cc1OCC (stereo not given)	inconclusive [quencher, full curve]	
Cc1cc(Nc2ccc(Br)cc2)nc(C)n1	inconclusive	
COc1ccc(CCCc2nnc(SCC(=O)Nc3cccc(F)c3C)o2)cc1		inactive: -0.243%
CCOC(=O)C1CCCN(C(=O)c2ccc3c(c2)sc2nc(-c4cccc(OC)c4)cn23)C1 (stereo not given)	inconclusive [falling, full curve, poor fit]	
COCCCn1c(SCc2cccc(Cl)c2)nc2c(sc3ccccc32)c1=O	inconclusive [falling, partial curve, poor fit]	
